Source: article PMC12136788
Some of the results follow.

T1: UNK ZnF1-3 (human, UniProt Q9C0B0 31-174)
T1 sequence: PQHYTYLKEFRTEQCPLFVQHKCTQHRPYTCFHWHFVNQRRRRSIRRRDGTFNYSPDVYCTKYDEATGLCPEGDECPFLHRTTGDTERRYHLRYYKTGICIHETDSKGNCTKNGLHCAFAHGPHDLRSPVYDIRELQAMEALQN

B1: chr3:129744051:129744052:-_ENSMUSG00000001052_ENSMUST00000001079|mus_hu|FALSE|FALSE (ssRNA)
RNA: GGGAGUUCUACAGUCCGACGAUCGCUGGCAGAGUACAUGGCUGGACUAUUGUAGUGAUUCACAAAAGAGGAGUAUGGUUGGGAGGCACUCGUAUGCAAAUGGGAUGCUGACGAUGCAGCACCUUGGAAAGAUCCUAGAGUGGACAACAGAGGAUUGAGCAUCA
B2: 69662632_69662752_1122_3pUTR_ENSMUSG00000042155_ENSMUST00000053087|mouse|control|control (ssRNA)
RNA: GGGAGUUCUACAGUCCGACGAUCGCUCCCUGAAUCCAAACAUUUGUCAAAGGGUCCCAUAUGUGGACCUCUGAUAAAGGAUGCCAGUAGUAGCCUCCAAUGAUAUACAUGGUGGCUGUGGACCUCUGGGAAAUCUCUUUAUGCCAACAGAGGAUUGAGCAUCA
B3: chrX:98860016:98860017:+_ENSMUSG00000034160_ENSMUST00000044475|mus_hu|motif|central (ssRNA)
RNA: GGGAGUUCUACAGUCCGACGAUCCUCCUUAUAAUGCAUCAGAGCUUCCUGCAGUUUUCCCUGCUGCUGCAGUACACUUGCGGAAUUUGAAUGGGCAGCAGCAAACUCUGGGAAGACUUCUAAUGCUUUACGAUACAAGCGAACCAACAGAGGAUUGAGCAUCA
B4: 100340318_100340781_1494_3pUTR_ENSG00000162688_ENST00000361915|human|control|control (ssRNA)
RNA: GGGAGUUCUACAGUCCGACGAUCUUCUCUGAAUUUAAUUCCUCCAUUCUUUUAUGAAACCAAUUACAGCAUUCUUCAAUUGCUGCUGGCCCCUUGUCAUGUGGUAUGAAAGUCGUUAGUGCAAUGUUCAUAUCUACAGUACAGCAACAGAGGAUUGAGCAUCA
B5: chr7:63234579:63234580:-_ENSMUSG00000047037_ENSMUST00000052204|mus_mus|FALSE|FALSE (ssRNA)
RNA: GGGAGUUCUACAGUCCGACGAUCCCAACCAUCGGGAGCUCUGUGCUGCAGAGGUCUGGACCUCACCCUGGUGCAAAGCCUAUUGUCCACUGGAUUAUUAGUUCACAGGCAAUGCUCACCGAGAGUCUCUUCUACGUGACAUGUCAACAGAGGAUUGAGCAUCA
B6: chr7:65705475:65705476:+_ENSG00000169902_ENST00000304842|hu_hu|hu_hu_hu_mus_True|48_98 (ssRNA)
RNA: GGGAGUUCUACAGUCCGACGAUCUCUAUUCGGUGAUGGCAUUCCAUGGCAUGCUGGCCCAGGUAAAACACGGUCACAGAACUAAUCACCAGACAUGCCAAGAGUAAGUUCUGCUUCAGCUUCCCAACCAUCUUGAUGUGGUUACAACAGAGGAUUGAGCAUCA
B7: chr18:67943652:67943653:+_ENSMUSG00000079614_ENSMUST00000025421|mus_mus|motif|central (ssRNA)
RNA: GGGAGUUCUACAGUCCGACGAUCAGUUGUCCUCUUCACCCAGUGACUCUGUCCUCGAAGUUUAUCGUUUGAUUCUCCCACGGUUUCUUCCCAUACAGCUGCUGUUCGGUCAAAAGAACAGGAAGCCAAAACUUGUCCAAAUUCCAACAGAGGAUUGAGCAUCA
B8: chr4:141471443:141471444:+_ENSG00000179387_ENST00000323570|hu_hu|FALSE|FALSE (ssRNA)
RNA: GGGAGUUCUACAGUCCGACGAUCAAGUGCUACAUUACAAUCCAGUAAAAGUCCUUUAAUCUUUUCAUGAAACUUCUCUCUAUACAAAUUGAAAUACAUAAUGCUUUCUGGUUCUUCUUCAAACCAAAACUUGUCAAAUUCAUACAACAGAGGAUUGAGCAUCA
B9: chr4:144465060:144465061:+_ENSG00000153147_ENST00000283131|hu_hu|FALSE|FALSE (ssRNA)
RNA: GGGAGUUCUACAGUCCGACGAUCAUAGUCUUCUCCUUCGAAGUUAUAAACACUUGACUCUGUAUCCAUUGUAAAGUUUCUAAGUGAACUUUCGCCCAUCUUGGAGAGCUUUUCAUUCAUCUCUGCAGUCUUCUUUGCACCUCUCAACAGAGGAUUGAGCAUCA
B10: 70595676_70597887_2548_CDS_ENSG00000189091_ENST00000302516|human|control|control (ssRNA)
RNA: GGGAGUUCUACAGUCCGACGAUCGAUAAUAAGGUUGUUACUCUCAGGGUGGAUGACAAAUUUCCUGGGUGUGUACUGCAGUGGGAAGGCUACUUGAUUGAAGACAGCACCGAGCUUCUCUAAUGCCAAAAUCCGUAGGGUGUUCAACAGAGGAUUGAGCAUCA
B11: 187367266_187368830_773_CDS_ENSG00000065548_ENST00000337859|human|control|control (ssRNA)
RNA: GGGAGUUCUACAGUCCGACGAUCACCCCCUCCAGGGCAUACCCAAAACCAGCCAUACUUGUUGUUUUCAAUAGCUUCCAGGAAAUGCUUGCACACUAUUUGAGUUUUUGGUUUUUUCUUUUCCGCCUCACCGUGCUUCUUGUUCAACAGAGGAUUGAGCAUCA
B12: chr16:83842930:83842931:+_ENSG00000230989_ENST00000433866|hu_hu|FALSE|FALSE (ssRNA)
RNA: GGGAGUUCUACAGUCCGACGAUCUUCUUCCACCCCAGCCUGUGUCAUGAGGUCCGCGAUAUUCUUUUCCAGAUCAUCAAUGCGACUACUCAUAUCAUCAAUUCUCCCAAUGAUCUGGUCAGACAUGGUCUGAAAUUUAUCUUGCAACAGAGGAUUGAGCAUCA
B13: chr16:94690093:94690094:+_ENSMUSG00000040785_ENSMUST00000117648|mus_hu|mus_mus_mus_hu_True|8_68 (ssRNA)
RNA: GGGAGUUCUACAGUCCGACGAUCGGGCUGGGAUGACGGACACACAGCCUCGAUUCCAGGGGGAAAAAAAAAUAGCCGAUACUAAUUAAAAAGUGUUAAUGAUUUUUGAAAAUCAGAUUACAUCUAUUUGAAUCAUAAAGCAAACAACAGAGGAUUGAGCAUCA
B14: chr9:15127005:15127006:-_ENSMUSG00000046111_ENSMUST00000161132|mus_hu|FALSE|FALSE (ssRNA)
RNA: GGGAGUUCUACAGUCCGACGAUCUGGUAUAGAGCUCUGUAAUGAAAAUGAUCCAGAACUUGCAAAAAGCUCUGAUUCUCCUAGUUGAGAUAGUUUUUUGGUGAUUUUUGGAAUGUCUGUUUCAGCUGAAUUCUCAAAAUAUUUCAACAGAGGAUUGAGCAUCA

These binders were tested against T1, UNK ZnF1-3 (assay: nsRBNS (natural sequence RNA bind-n-seq); RBNS binding buffer (assumed for nsRBNS): 25 mM Tris pH 7.5, 150 mM KCl, 3 mM MgCl2, 0.01% Triton X-100, 500 ug/ml BSA, 20 U/ml SUPERase-In, 4 C; UNK is unkempt and MSI1 is Musashi-1; names of the RNAs are library labels; protein concentration not given here; high values mean tight binding).

| Binder | binding signal [enrichment R] |
| --- | --- |
| B1 | 1.31 |
| B2 | 0.871 |
| B3 | 0.448 |
| B4 | 0.607 |
| B5 | 1.02 |
| B6 | 0.491 |
| B7 | 1.03 |
| B8 | 0.75 |
| B9 | 0.387 |
| B10 | 0.942 |
| B11 | 0.719 |
| B12 | 0.568 |
| B13 | 0.945 |
| B14 | 0.77 |
